Assay results from US10858425B2, “Pan-ELR+ CXC chemokine antibodies” (Eli Lilly and Company, priority 2013, dated 2020).

How the values were obtained:
human CXCL6 (GCP-2) = target: T1, human CXCL6 (GCP-2) (Homo sapiens, UniProt P80162); experiment: Biacore surface plasmon resonance binding to human CXCL6; conditions: 25° C.
T1 sequence (P80162 40-114 limits assumed): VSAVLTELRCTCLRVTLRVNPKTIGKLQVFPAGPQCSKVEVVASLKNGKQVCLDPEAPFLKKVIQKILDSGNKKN
Procedure: Biacore 2000 instrument and Biacore 2000 Evaluation Software Version 4.1 are used for surface plasmon resonance analysis. A […] chip is prepared using manufacturer's EDC/NHS amine coupling method. Briefly, the surfaces of all four flow cells are activated by injecting a 1:1 mixture of EDC/NHS for 7 minutes at 10 μL/min. Protein A is diluted to 100 μg/mL in 10 mM acetate, pH 4.5 buffer, and immobilized to achieve approximately 10,000 RU onto all 4 flow cells by 7-minute injection at a flow rate of 10 μL/minute. Unreacted sites are blocked with a 7-minute injection of ethanolamine at 10 μL/minute. Two injections of glycine (pH 1.5) for 30 seconds at 10 μL/minute are used to remove any non-covalently associated protein. Running buffer is HBS-EP+.
Antibody 1 or Antibody 2 is diluted to 2 μg/mL in running buffer, and approximately 400-600 RU is captured in flow cell (Fc). Ligands are diluted from 100 μg/mL to 50 nM in running buffer and then two-fold serially diluted in running buffer to 3.125 nM. Duplicate injections of each ligand concentration are injected at 100 μL/min for 150 seconds followed by a dissociation phase. […] The on-rate (kon) and off-rate (koff) for each ligand are evaluated using a “1:1 (mass transfer) Binding” binding model. The affinity […] is calculated from the binding kinetics according to the relationship: KD=koff/kon.

human CXCL7 = target: T2, human CXCL7 (Homo sapiens, UniProt P02775); experiment: FLIPR neutralization using HMEC cells expressing human CXCR2, CXCL7; format: cell-based; conditions: CXCL7 10 nM; HMEC-huCXCR2 FLIPR
T2 sequence (P02775 59-128 limits assumed): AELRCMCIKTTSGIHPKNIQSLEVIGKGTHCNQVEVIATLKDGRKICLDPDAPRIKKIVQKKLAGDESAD
Excerpt: Since all of the ELR+ CXC chemokines can bind CXCR2 receptor, cells expressing CXCR2 were selected for in vitro studies. HMEC-huCXCR2 is an immortalized human endothelial cell line transduced with retrovirus for expression of human CXCR2 receptor. HMEC cells expressing human CXCR2 are able to induce intracellular Ca^2+ influx in response to human, cynomolgus monkey, rat, and mouse ELR+CXC chemokines. Intracellular Ca^2+ influx can be detected by a Fluorescent Imagine £late Reader (FLIPR). Chemokine neutralization should therefore also neutralize intracellular Ca^2+ influx induced by these chemokines.
HMEC-huCXCR2 is maintained in MCDB 31 medium supplemented with 10% fetal bovine serum, 2× GlutaMax, 1× non-essential amino acids, 1 μg/mL hydrocortisone, 10 ng/mL human Epidermal Growth Factor, and 0.4 μg/mL puromycin at 37° C. in 5% CO2. […] A cell plate and a ligand-antibody plate are loaded into a Fluorescent Imagine Plate Reader (FLIPR-3, Molecular Devices) programmed to transfer 50 μL of ligand-antibody to wells of the cell plate. Fluorescence is recorded every second for 90 seconds. The change in fluorescence (DRFU) is calculated from images 10 to 90. DRFU versus log (antibody concentration) is plotted and IC50 values are determined by nonlinear regression using Graph Pad Prism. […] Data are expressed as the mean of replicates. […]

[1] = Physical stability evaluation, % HMW aggregate by analytical SEC; format: physicochemical; conditions: for % HMW (t = 1 week) / Δ % HMW (t = 1 week) / % HMW (t = 4 weeks) / Δ % HMW (t = 4 weeks): 50 mg/mL; for Δ % HMW (t = 1 week): 1 week minus initial; for Δ % HMW (t = 4 weeks): 4 weeks minus initial
Excerpt: Protein aggregation and self-association is an undesirable property in antibodies as it could potentially exacerbate unwanted effects, such as triggering an immune response. Thus, maintaining the antibody in a monomeric state is highly desirable. Percent high molecular weight (% HMW) aggregate is an indicator of protein aggregation and self-association. A higher % HMW aggregate indicates increased protein aggregation/self-association and increased physical instability. Physical stability of Antibody 1 and Antibody 2 are determined as follows.
Antibody is dialyzed overnight at 4° C. into 10 mM Citrate, pH 6+/−150 mM NaCl. The next morning, the samples are concentrated to 50 mg/mL, filtered through 0.2 micron filters, and then Tween-80 is added to a final concentration of 0.02%. Each sample is incubated at 25° C. for the specified times. Soluble aggregate formation is followed by analytical SEC using a TSK3000SWXL, 5 micron column with dimensions 30 cm×0.78 cm. […] Samples are applied as 1 μL injections and monitored at 280 nm to determine the increase % HMW aggregate (Table 3).
The 50 mg/mL formulations are incubated for 1 and 4 weeks at 25° C. to assess longer-term stability under stress conditions. The delta % HMW aggregate is determined by subtracting the % HMW aggregate at time zero (designated as ‘Initial’ in Table 3) from the % HMW at the 1 week or 4 week time point.

[2] = 10 mM Citrate pH7, 150 mM NaCl 25° C.
[3] = 10 mM Citrate pH7, 150 mM NaCl, 0.02% Tween-80 25° C.

- kon (human CXCL6 (GCP-2)): 7.07 ± 0.11 (1/Ms) × 10^5
- IC50 (human CXCL7): 1.068 (±0.324) ug/mL
B1: Antibody 1: antibody with heavy chain SEQ ID NO: 1 and light chain SEQ ID NO: 3, expressed in NSO cells (antibody)
heavy: QVQLVQSGAEVKKPGASVKVSCKASGYEFTSYWIHWVRQAPGQGLEWMGNISPNSGSANYNEKFKSRVTMTRDTSTSTVYMELSSLRSEDTAVYYCAREGPYSYYPSREYYGSDLWGQGTLVTVSSASTKGPSVFPLAPCSRSTSESTAALGCLVKDYFPEPVTVSWNSGALTSGVHTFPAVLQSSGLYSLSSVVTVPSSSLGTKTYTCNVDHKPSNTKVDKRV[human IgG4 Fc with S228P (EU numbers) not spelt out]
light: EIVLTQSPATLSLSPGERATLSCRASQSISNNLHWYQQKPGQAPRLLIYYTSRSVSGIPARFSGSGSGTDFTLTISSLEPEDFAVYYCGQNNEWPEVFGGGTKVEIKRTVAAPSVFIFPPSDEQLKSGTASVVCLLNNFYPREAKVQWKVDNALQSGNSQESVTEQDSKDSTYSLSSTLTLSKADYEKHKVYACEVTHQGLSSPVTKSFNRGEC
- % HMW Initial (4° C.) ([1]; 10 mM Citrate pH7, 150 mM NaCl, 0.02% Tween-80): 1.05%
- % HMW Initial (4° C.) ([1]; 10 mM Citrate pH7, 150 mM NaCl): 0.78%
- % HMW (t = 1 week) [1, 2]: 1.24%
- Δ % HMW (t = 1 week) [1, 2]: 0.46%
- % HMW (t = 4 weeks) [1, 2]: 1.41%
- Δ % HMW (t = 4 weeks) [1, 2]: 0.63%
- % HMW (t = 1 week) [1, 3]: 1.46%
- Δ % HMW (t = 1 week) [1, 3]: 0.41%
- % HMW (t = 4 weeks) [1, 3]: 1.75%
- Δ % HMW (t = 4 weeks) [1, 3]: 0.7%
